Data on 27 compounds can be found in the supplement of paper PMC10037445.

Whole data set: some 2,900 compounds, median “NF-kB SEAP reporter activity, fold change vs agonist alone” near 0.99, cut for the highest 2% near 2.6. The list shows a part of the results.

The subject of experiment [1] is RAW-Dual. Nature of the experiment: NF-kB SEAP reporter activity, fold change vs agonist alone; cytotoxicity flag (confluency mask): not cytotoxic; higher = enhanced NF-kB activity. The gist of the method: (§1)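 Reporter activity is given as fold change relative to agonist-alone wells. To measure it, 50 nL of library stock was pin-tooled onto RAW-Dual macrophages (50,000 cells/well, DMEM, 384-well plates), a PRR agonist followed 1 h later, and cells stayed at 37 °C, 5% CO2. Twenty hours on, supernatant was assayed for IRF (QuantiLuc luminescence) and NF-κB (QuantiBlue, 620 nm absorbance), and wells under 70% of agonist-control IncuCyte confluency in both mask sets were marked cytotoxic.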

For experiment [2], the system named is RAW-Dual. The experiment can be described thus: NF-kB SEAP reporter activity, fold change vs agonist alone; higher = enhanced NF-kB activity. The gist of the method: as §1
Experiment [3] deals with RAW-Dual. Nature of the experiment: NF-kB SEAP reporter activity, fold change vs agonist alone; cytotoxicity flag (confluency mask): cytotoxic (confluency <70% of control); higher = enhanced NF-kB activity. The gist of the method:
as §1

The mark [4] stands for this setting: agonist: ODN 1826 (TLR9) 0.5 ug/mL.
[5] abbreviates: agonist: Pam2CSK4 (TLR2/6) 0.1 ug/mL.
Where [6] appears, read: agonist: Pam3CSK4 (TLR2/1) 0.1 ug/mL.
Setting [7] is: library stock concentration (final ~1000-fold dilution): 10 mM, cytotoxicity flag (confluency mask): not cytotoxic, agonist: Imiquimod (TLR7) […].
[8] abbreviates: library stock concentration (final ~1000-fold dilution): 10 mM, cytotoxicity flag (confluency mask): not cytotoxic, agonist: MPLA (TLR4) […].

Consider `CC(=O)OC1CC2(C)C(CC(O)C3C4(C)CCC(O)C(C)C4CCC32C)/C1=C(\CCC=C(C)C)C(=O)O` (configuration not stated) (library stock concentration (final ~1000-fold dilution): 10 mM), for which the “NF-kB SEAP reporter activity” value stood at 0.844 in experiment [1] (agonist: LPS (TLR4) 0.1 ug/mL), 0.976 in experiment [1] (setting [4]), 0.952 in experiment [1] (setting [5]) and 0.905 in experiment [1] (setting [6]).

As for `C=C1C(=O)OC2/C=C(\C)CC/C=C(\C)CCC12` (configuration not stated) (library stock concentration (final ~1000-fold dilution): 10 mM), the “NF-kB SEAP reporter activity” value in experiment [1] (agonist: LPS (TLR4) 0.1 ug/mL) stood at 0.231; in experiment [1] (setting [4]), 0.213; in experiment [1] (setting [5]) it was 0.153; in experiment [1] (setting [6]), 0.197.

As for `C=C1C(=O)OC2/C=C(\C)CC/C=C(\C)CCC12` (configuration not stated), the “NF-kB SEAP reporter activity” value in experiment [2] (setting [7]) amounted to 0.262; in experiment [2] (setting [8]), 0.198.

In the case of `COC(=O)c1ccc2c(c1)nc(NC(=O)c1ccccc1)n2CCCc1ccccc1` (library stock concentration (final ~1000-fold dilution): 10 mM), the “NF-kB SEAP reporter activity” value in experiment [1] (agonist: LPS (TLR4) 0.1 ug/mL) stood at 0.363; in experiment [1] (setting [4]), 0.729; in experiment [1] (setting [5]), 0.316; in experiment [1] (setting [6]), 0.431.

Consider `COC(=O)c1ccc2c(c1)nc(NC(=O)c1ccccc1)n2CCCc1ccccc1`, for which the “NF-kB SEAP reporter activity” value in experiment [2] (setting [7]) came out at 0.865; in experiment [2] (setting [8]) it was 0.827.

For the compound `CN1CCN(Cc2ccc(Nc3ncc(Cl)c(Nc4ccccc4S(=O)(=O)N(C)C)n3)cc2)CC1`, the “NF-kB SEAP reporter activity” value in experiment [2] (library stock concentration (final ~1000-fold dilution): 2 mM, cytotoxicity flag (confluency mask): cytotoxic (confluency <70% of control), agonist: Imiquimod (TLR7) […]) came out at 1.37; in experiment [2] (library stock concentration (final ~1000-fold dilution): 2 mM, cytotoxicity flag (confluency mask): cytotoxic (confluency <70% of control), agonist: MPLA (TLR4) […]), 0.961.

For the compound `CN1CCN(Cc2ccc(Nc3ncc(Cl)c(Nc4ccccc4S(=O)(=O)N(C)C)n3)cc2)CC1` (library stock concentration (final ~1000-fold dilution): 2 mM), the “NF-kB SEAP reporter activity” value in experiment [3] (agonist: LPS (TLR4) 0.1 ug/mL) came to 0.331; in experiment [3] (setting [4]) it was 1.3; in experiment [3] (setting [5]), 0.245; in experiment [3] (setting [6]) it was 1.08.

As for `c1ccc(NCc2ccc(CNc3ccccn3)cc2)nc1` (library stock concentration (final ~1000-fold dilution): 10 mM), the “NF-kB SEAP reporter activity” value in experiment [1] (agonist: LPS (TLR4) 0.1 ug/mL) amounted to 1.38; in experiment [1] (setting [4]), 0.808; in experiment [1] (setting [5]), 1.13; in experiment [1] (setting [6]) it was 1.22.

For the compound `c1ccc(NCc2ccc(CNc3ccccn3)cc2)nc1`, the “NF-kB SEAP reporter activity” value in experiment [2] (setting [7]) amounted to 0.948; in experiment [2] (setting [8]) it was 1.03.

Regarding `O=C(NC(C1CC1)C(F)(F)F)c1cc(-c2cnn3cc(-c4ccc(F)cc4)cnc23)cs1` (configuration not stated) (library stock concentration (final ~1000-fold dilution): 10 mM), the “NF-kB SEAP reporter activity” value in experiment [1] (agonist: LPS (TLR4) 0.1 ug/mL) amounted to 2.68; in experiment [1] (setting [4]) it was 1.73; in experiment [1] (setting [5]), 2.46; in experiment [1] (setting [6]), 3.14.

Turning to `O=C(NC(C1CC1)C(F)(F)F)c1cc(-c2cnn3cc(-c4ccc(F)cc4)cnc23)cs1` (configuration not stated), the “NF-kB SEAP reporter activity” value stood at 1.28 in experiment [2] (setting [7]) and 1.98 in experiment [2] (setting [8]).

As to `COc1c2occc2cc2ccc(=O)oc12`, the figures for the “NF-kB SEAP reporter activity” value in experiment [2] (setting [7]) and in experiment [2] (setting [8]) were 0.971 and 1.16, respectively.

Consider `COc1c2occc2cc2ccc(=O)oc12` (library stock concentration (final ~1000-fold dilution): 10 mM), for which the “NF-kB SEAP reporter activity” value in experiment [1] (agonist: LPS (TLR4) 0.1 ug/mL) worked out at 0.948; in experiment [1] (setting [4]) it was 1.17; in experiment [1] (setting [5]) it was 1.12; in experiment [1] (setting [6]), 1.19.

As for `CC(C)CC(N)=O`, the entries for the “NF-kB SEAP reporter activity” value in experiment [2] (setting [7]) and in experiment [2] (setting [8]) were 1.02 and 0.978, respectively.

Turning to `CC(C)CC(N)=O` (library stock concentration (final ~1000-fold dilution): 10 mM), the “NF-kB SEAP reporter activity” value in experiment [1] (agonist: LPS (TLR4) 0.1 ug/mL) amounted to 1.02; in experiment [1] (setting [4]) it was 1.03; in experiment [1] (setting [5]), 1.11; in experiment [1] (setting [6]), 1.1.

In the case of `CN(C)C(=O)Nc1cccc(-c2ccc(N(C)C)cc2)c1`, the figures for the “NF-kB SEAP reporter activity” value in experiment [2] (setting [7]) and in experiment [2] (setting [8]) were 0.998 and 0.985, respectively.

`CN(C)C(=O)Nc1cccc(-c2ccc(N(C)C)cc2)c1` (library stock concentration (final ~1000-fold dilution): 10 mM): the “NF-kB SEAP reporter activity” value worked out at 1.52 in experiment [1] (agonist: LPS (TLR4) 0.1 ug/mL), 1.08 in experiment [1] (setting [4]), 0.914 in experiment [1] (setting [5]) and 1.01 in experiment [1] (setting [6]).

Turning to `O=C(c1ccc(Oc2ccccc2)cc1Cl)c1c[nH]c2ncnc(NC3CCC(CO)OC3)c12` (configuration not stated) (library stock concentration (final ~1000-fold dilution): 10 mM), the “NF-kB SEAP reporter activity” value in experiment [3] (agonist: LPS (TLR4) 0.1 ug/mL) is 0.431; in experiment [3] (setting [4]), 0.161; in experiment [3] (setting [5]), 0.293; in experiment [3] (setting [6]), 0.129.

For `O=C(c1ccc(Oc2ccccc2)cc1Cl)c1c[nH]c2ncnc(NC3CCC(CO)OC3)c12` (configuration not stated), the “NF-kB SEAP reporter activity” value came out at 0.133 in experiment [2] (library stock concentration (final ~1000-fold dilution): 10 mM, cytotoxicity flag (confluency mask): cytotoxic (confluency <70% of control), agonist: Imiquimod (TLR7) […]) and 0.252 in experiment [2] (library stock concentration (final ~1000-fold dilution): 10 mM, cytotoxicity flag (confluency mask): cytotoxic (confluency <70% of control), agonist: MPLA (TLR4) […]).

Turning to `C=CC(=O)N1CCC(CNc2ncnc(N)c2-c2ccc(Oc3ccccc3)cc2)CC1` (library stock concentration (final ~1000-fold dilution): 10 mM), the “NF-kB SEAP reporter activity” value came out at 0.782 in experiment [1] (agonist: LPS (TLR4) 0.1 ug/mL), 0.734 in experiment [1] (setting [4]), 0.549 in experiment [1] (setting [5]) and 0.601 in experiment [1] (setting [6]).

Consider `C=CC(=O)N1CCC(CNc2ncnc(N)c2-c2ccc(Oc3ccccc3)cc2)CC1`, for which the “NF-kB SEAP reporter activity” value in experiment [2] (setting [7]) was 0.888; in experiment [2] (setting [8]), 0.827.

Regarding `C=CC(C)(/C=C/c1ccc(O)cc1)CCC=C(C)C` (configuration not stated) (library stock concentration (final ~1000-fold dilution): 10 mM), the “NF-kB SEAP reporter activity” value in experiment [1] (agonist: LPS (TLR4) 0.1 ug/mL) was 0.878; in experiment [1] (setting [4]), 1.02; in experiment [1] (setting [5]), 0.934; in experiment [1] (setting [6]), 1.16.

`C=CC(C)(/C=C/c1ccc(O)cc1)CCC=C(C)C` (configuration not stated): the “NF-kB SEAP reporter activity” value in experiment [2] (setting [7]) stood at 1.1; in experiment [2] (setting [8]), 1.12.

As for `N#Cc1ccc(C(c2ccc(C#N)cc2)n2cncn2)cc1` (library stock concentration (final ~1000-fold dilution): 10 mM), the “NF-kB SEAP reporter activity” value in experiment [1] (agonist: LPS (TLR4) 0.1 ug/mL) was 1.01; in experiment [1] (setting [4]), 0.93; in experiment [1] (setting [5]), 0.955; in experiment [1] (setting [6]), 1.09.

Take `N#Cc1ccc(C(c2ccc(C#N)cc2)n2cncn2)cc1`: the “NF-kB SEAP reporter activity” value in experiment [2] (setting [7]) amounted to 0.839; in experiment [2] (setting [8]), 0.983.

For `CCCC1CC(C(=O)NC(C(C)Cl)C2OC(SC)C(O)C(O)C2O)N(C)C1` (configuration not stated) (library stock concentration (final ~1000-fold dilution): 10 mM), the “NF-kB SEAP reporter activity” value is 1.14 in experiment [1] (agonist: LPS (TLR4) 0.1 ug/mL), 1.04 in experiment [1] (setting [4]), 1.04 in experiment [1] (setting [5]) and 1.17 in experiment [1] (setting [6]).

Turning to `CCCC1CC(C(=O)NC(C(C)Cl)C2OC(SC)C(O)C(O)C2O)N(C)C1` (configuration not stated), the figures for the “NF-kB SEAP reporter activity” value in experiment [2] (setting [7]) and in experiment [2] (setting [8]) were 1.02 and 1.07, respectively.
